Here are results for 102 sequences from a collection of fitness landscapes (doi:10.1038/s41467-024-54723-y).

The full ranking holds about 18,000 sequences; the median of “TetR repression strength (sort-seq, GFP reporter)” is about 0.23, and the highest 2% start at about 0.68. The list shows a part of the results.

UniProt P04483, sequence (P04483 whole entry): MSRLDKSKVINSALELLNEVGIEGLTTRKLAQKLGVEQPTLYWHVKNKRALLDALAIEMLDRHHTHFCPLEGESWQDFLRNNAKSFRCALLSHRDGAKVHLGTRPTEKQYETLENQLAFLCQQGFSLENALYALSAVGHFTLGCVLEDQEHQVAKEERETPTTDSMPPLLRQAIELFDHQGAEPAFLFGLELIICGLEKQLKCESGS

The target in this assay is TetR (class B, Tn10) (UniProt P04483). Kind of assay: TetR repression strength (sort-seq, GFP reporter) (relative to tetO2 = 1); higher = stronger repression. The note with it: E. coli. The procedure, abridged:
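Escherichia coli SIG10-MAX cells carried a low-copy plasmid library in which eight operator positions were randomized between a constitutive promoter and sfGFP, and TetR was expressed constitutively. After 5 h of growth at 37 °C in LB with 50 µg/mL chloramphenicol, 10^6 cells were FACS-sorted into 13 fluorescence bins, and each bin was Illumina-sequenced. Repression strength was the top bin index plus one minus the read-weighted mean bin, divided by the value for the unaltered operator. Across three independent transformations, only library members with ≥30 reads in every replicate and a CV ≤0.5 were averaged.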
As for TCCCGGCGAGTGTAAGAGA, the TetR repression strength was 0.654.

Regarding TCCCGATCAGTCAAGGAGA, the TetR repression strength was determined as 0.375.

TCCCCATCAGTGATAGAGA had a TetR repression strength of 0.966.

TCCCGCGAAGTCGGGGAGA registered a TetR repression strength of 0.448.

TCCCTATGAGTGGGTGAGA came in with a TetR repression strength of 0.136.

TCCCATTTAGTCGACGAGA showed a TetR repression strength of 0.538.

TCCCGGATAGTTCTAGAGA registered a TetR repression strength of 0.278.

Take TCCCATCGAGTGCGAGAGA: the TetR repression strength came to 0.0889.

In the case of TCCCAAGGAGTCTTAGAGA, the TetR repression strength amounted to 0.475.

TCCCTCTGAGTAGTAGAGA returned a TetR repression strength of 0.144.

Turning to TCCCGAAAAGTGCGAGAGA, the TetR repression strength came out at 0.242.

In turn, TCCCAGCAAGTATGGGAGA registered a TetR repression strength of 0.71.

In turn, TCCCATCTAGTCTGGGAGA had a TetR repression strength of 0.254.

Sequence TCCCTTAGAGTCAATGAGA displayed a TetR repression strength of 0.269.

As to TCCCCAACAGTTCGGGAGA, the TetR repression strength was 0.0137.

Turning to TCCCTTTGAGTTATGGAGA, the TetR repression strength was found to be 0.325.

As to TCCCAGCCAGTTAGGGAGA, the TetR repression strength stood at 0.204.

As to TCCCTGCCAGTAGTAGAGA, the TetR repression strength is 0.27.

As for TCCCCACGAGTGCTCGAGA, the TetR repression strength was determined as 0.156.

The sequence TCCCCGGCAGTGGGTGAGA registered a TetR repression strength of 0.0895.

With TCCCTCCTAGTATGAGAGA, the TetR repression strength was found to be 0.28.

Take TCCCTTTCAGTTTTGGAGA: the TetR repression strength came out at 0.151.

As to TCCCGATGAGTTTGGGAGA, the TetR repression strength was found to be 0.199.

As to TCCCACTCAGTGCGCGAGA, the TetR repression strength came out at 0.0918.

Consider TCCCACCTAGTAGGTGAGA, for which the TetR repression strength is 0.222.

The sequence TCCCGAGTAGTTTGAGAGA gave a TetR repression strength of 0.211.

Consider TCCCGCTAAGTACCGGAGA, for which the TetR repression strength is 0.158.

On to TCCCGATGAGTAGACGAGA, for which the TetR repression strength was 0.0926.

For TCCCGACAAGTGCAGGAGA, the TetR repression strength is 0.684.

Take TCCCAGCAAGTTCTGGAGA: the TetR repression strength is 0.0363.

Take TCCCGCCCAGTATTTGAGA: the TetR repression strength came to 0.311.

Regarding TCCCCGACAGTAGGGGAGA, the TetR repression strength stood at 0.0926.

Turning to TCCCTACCAGTGTGGGAGA, the TetR repression strength was 0.327.

TCCCACGGAGTGCGGGAGA: the TetR repression strength is 0.24.

Regarding TCCCTGTCAGTAGGCGAGA, the TetR repression strength was found to be 0.38.

For TCCCTTCTAGTTACAGAGA, the TetR repression strength came out at 0.558.

Sequence TCCCAGCAAGTGTGTGAGA came in with a TetR repression strength of 0.1.

TCCCTTAAAGTACCAGAGA came in with a TetR repression strength of 0.166.

In turn, TCCCTCAGAGTAGGTGAGA came in with a TetR repression strength of 0.0581.

In turn, TCCCATATAGTGTAAGAGA had a TetR repression strength of 0.359.

TCCCAGTGAGTCTTGGAGA: the TetR repression strength stood at 0.214.

As to TCCCCGGTAGTCGTTGAGA, the TetR repression strength came out at 0.192.

Take TCCCACCAAGTGATCGAGA: the TetR repression strength worked out at 0.314.

TCCCTGGGAGTATAGGAGA: the TetR repression strength was determined as 0.273.

In turn, TCCCTAGTAGTGTGAGAGA had a TetR repression strength of 0.119.

In the case of TCCCTTCTAGTTTCAGAGA, the TetR repression strength came out at 0.401.

The sequence TCCCAAGAAGTCGGCGAGA yielded a TetR repression strength of 0.0931.

On to TCCCGACTAGTCTTGGAGA, for which the TetR repression strength was determined as 0.338.

Turning to TCCCAGACAGTGTGAGAGA, the TetR repression strength came out at 0.418.

The sequence TCCCGCGGAGTGCGGGAGA came in with a TetR repression strength of 0.369.

In the case of TCCCCAAGAGTTATAGAGA, the TetR repression strength came to 0.281.

The sequence TCCCCCTAAGTCTGTGAGA showed a TetR repression strength of 0.104.

As for TCCCCTCTAGTATTCGAGA, the TetR repression strength came out at 0.39.

For TCCCGGGCAGTACCGGAGA, the TetR repression strength came to 0.328.

Sequence TCCCAGGCAGTCCGGGAGA yielded a TetR repression strength of 0.0518.

For the sequence TCCCGATCAGTTGGAGAGA, the TetR repression strength turned out to be 0.198.

Consider TCCCCTGTAGTGAGGGAGA, for which the TetR repression strength is 0.087.

Sequence TCCCTCATAGTCCCTGAGA registered a TetR repression strength of 0.235.

TCCCATGCAGTAGGTGAGA: the TetR repression strength amounted to 0.194.

As to TCCCCTGGAGTACGAGAGA, the TetR repression strength came out at 0.207.

In the case of TCCCTGCGAGTCCACGAGA, the TetR repression strength worked out at 0.204.

Sequence TCCCAAGTAGTGATTGAGA had a TetR repression strength of 0.36.

In the case of TCCCGTGAAGTGGTAGAGA, the TetR repression strength stood at 0.348.

As for TCCCTCTTAGTTAACGAGA, the TetR repression strength is 0.322.

The sequence TCCCGTCTAGTGACCGAGA showed a TetR repression strength of 0.0797.

Sequence TCCCCTTCAGTAGTAGAGA registered a TetR repression strength of 0.25.

TCCCCACAAGTGTTGGAGA: the TetR repression strength is 0.173.

For the sequence TCCCTATCAGTTACGGAGA, the TetR repression strength is 0.484.

TCCCGGCTAGTTCTGGAGA: the TetR repression strength stood at 0.207.

Sequence TCCCGTAAAGTTCATGAGA showed a TetR repression strength of 1.21.

With TCCCTGCCAGTTCCTGAGA, the TetR repression strength worked out at 0.201.

As to TCCCGGACAGTGAGAGAGA, the TetR repression strength is 0.246.

As for TCCCGAGAAGTATACGAGA, the TetR repression strength was 0.145.

In the case of TCCCGGTTAGTATGCGAGA, the TetR repression strength was found to be 0.19.

As to TCCCGTCCAGTTGTGGAGA, the TetR repression strength was 0.514.

For TCCCGGACAGTAGACGAGA, the TetR repression strength is 0.25.

For the sequence TCCCCGGCAGTGAAAGAGA, the TetR repression strength came to 0.324.

The sequence TCCCGAAGAGTTTAAGAGA gave a TetR repression strength of 0.292.

In turn, TCCCAATCAGTGGATGAGA came in with a TetR repression strength of 0.284.

Consider TCCCCACAAGTGATGGAGA, for which the TetR repression strength was 0.152.

Consider TCCCTTAGAGTGTCGGAGA, for which the TetR repression strength is 0.182.

On to TCCCTATCAGTGCCGGAGA, for which the TetR repression strength came out at 1.06.

For the sequence TCCCCTTTAGTGGTTGAGA, the TetR repression strength worked out at 0.273.

As for TCCCAAACAGTTATGGAGA, the TetR repression strength was determined as 0.203.

TCCCTTGGAGTAACAGAGA: the TetR repression strength was 0.

The sequence TCCCACTGAGTTCAGGAGA returned a TetR repression strength of 0.104.

TCCCGTCGAGTTATAGAGA displayed a TetR repression strength of 0.254.

The sequence TCCCAAGTAGTTAAGGAGA displayed a TetR repression strength of 0.0695.

The sequence TCCCGCGCAGTACGGGAGA came in with a TetR repression strength of 0.17.

As to TCCCCACGAGTAAGAGAGA, the TetR repression strength worked out at 0.215.

Consider TCCCCAAAAGTTTGTGAGA, for which the TetR repression strength stood at 0.0341.

The sequence TCCCATTGAGTTGACGAGA came in with a TetR repression strength of 0.0759.

Sequence TCCCAAGAAGTCCTGGAGA displayed a TetR repression strength of 0.226.

As to TCCCGGATAGTTGCCGAGA, the TetR repression strength came to 0.

Consider TCCCCAAGAGTGATAGAGA, for which the TetR repression strength is 0.456.

Sequence TCCCGACTAGTGCTCGAGA yielded a TetR repression strength of 0.0234.

In turn, TCCCTCAGAGTATTTGAGA yielded a TetR repression strength of 0.462.

TCCCTGGCAGTGATGGAGA: the TetR repression strength was found to be 0.189.

TCCCAATCAGTTACGGAGA showed a TetR repression strength of 0.404.

TCCCTTTTAGTAAGGGAGA registered a TetR repression strength of 0.112.

With TCCCGTAGAGTCCGTGAGA, the TetR repression strength was found to be 0.202.

Turning to TCCCGTGGAGTCCGGGAGA, the TetR repression strength was determined as 0.158.
